Source: the supplement of paper PMC11417369
± gives the standard deviation of the averaged measurements. The list shows a part of the results.

These sequences were tested on PfAP2-EXP AP2 domain (GST-tagged) (assay: gcPBM binding intensity (ln(normalized median fluorescence intensity)); higher = stronger DNA binding).
Outline: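 Each value is the highest Masliner-normalised natural-log median intensity across replicate spots of either orientation of a probe. The probes were primer-extended double-stranded 36-bp intergenic genomic sequences on an Agilent 4 × 180k array, alongside negative controls, exposed for 1 h to GST-tagged P. falciparum DNA-binding domains expressed in E. coli. Bound protein was picked up with Alexa488 anti-GST antibody and scanned at 488 nm.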
“TATTTGGGTATTTTTACACACATTAAAATATATATA [CACACA_site5800]” was tested, and the “gcPBM binding intensity (ln)” value was 8.2 ± 0.33.
“TGTAGATAAAATAAACGTACGTATTGATTTTTTTCA [XGTACX_site1610]” was tested, and the “gcPBM binding intensity (ln)” value was 8.26 ± 0.41.
“TATTTGTAAAGACATGCATGGTACTTTTAAAACATA [TGCATGCA_site7]” was tested, and the “gcPBM binding intensity (ln)” value was 8.9 ± 0.42.
“ACATATGAATATAATACACACTTGTATTCTTAATAT [CACACA_site5085]” was tested, and the “gcPBM binding intensity (ln)” value was 8.33 ± 0.34.
For “ATAATTCCATAAAATAGACACACGAATGTATAATAT [CACACA_site477]”, the “gcPBM binding intensity (ln)” value was 8.62 ± 0.49.
With CAGTTGTTAATTTGTGTGCACCAAATATTATACATA the “gcPBM binding intensity (ln)” value was 9.34 ± 0.71.
For “TGGTAATACCCATACACACACACATACACATATATA [CACACA_site8877]”, the “gcPBM binding intensity (ln)” value was 8.61 ± 0.43.
For “TTAATATTTGTTCTGATCCTTTTATTCAACTTTTTT [CACACA_negctrl_site536]”, the “gcPBM binding intensity (ln)” value was 8.72 ± 0.52.
In the case of “GTATAAAAATTTAGGAGTACAATATATTTATAATAT [XGTACX_site2127]”, the “gcPBM binding intensity (ln)” value is reported as 8.705 ± 0.035.
For “TCTAATTTAAAATACACACACATATCTATAATATAT [CACACA_site7029]”, the “gcPBM binding intensity (ln)” value was 8.35 ± 0.38.
In the case of “GTAATAAAAAATTAATGTACTTTATATAATATATTA [XGTACX_site5935]”, the “gcPBM binding intensity (ln)” value is reported as 8.16 ± 0.32.
With “TTTTTGTATTCTCCGGACTACATTATGTTGTAAATG [CACACA_negctrl_site691]” the “gcPBM binding intensity (ln)” value was 8.83 ± 0.51.
“TTTTACGTGAGTAATACACACATATAAGTTTATATA [CACACA_site4120]” was tested, and the “gcPBM binding intensity (ln)” value was 8.22 ± 0.45.
For “GGCATACACGAACACACACACACACGCACATATATA [CACACA_site6426]”, the “gcPBM binding intensity (ln)” value was 8.96 ± 0.52.
For “TATAACTTTTTTAATACACACAAATATTTATTTATA [CACACA_site7425]”, the “gcPBM binding intensity (ln)” value was 8.39 ± 0.37.
For “TGTATGTTAAATACAACACACAAAAAAAAACAAGTT [CACACA_site4324]”, the “gcPBM binding intensity (ln)” value was 8.43 ± 0.37.
“TACCACTTTCGAAGTAGTACATGGCTTTTTTTTTTT [XGTACX_site8379]” was tested, and the “gcPBM binding intensity (ln)” value was 8.64 ± 0.54.
For “GTTATAATTTAGTCAAGTACATGCGTATGTATATTC [XGTACX_site3763]”, the “gcPBM binding intensity (ln)” value was 8.66 ± 0.33.
With “ATATATATATGTGTGTGTACATATGATTTCGCACTT [XGTACX_site4449]” the “gcPBM binding intensity (ln)” value was 9.63 ± 0.24.
“TATACAGATAAATACACACACATATATATATATATA [CACACA_site4178]” was tested, and the “gcPBM binding intensity (ln)” value was 10.1 ± 0.28.
In the case of “TAATATATATTATATACACACATATATATATATATA [CACACA_site428]”, the “gcPBM binding intensity (ln)” value is reported as 10.1 ± 0.28.
In the case of “CACAGAAATATTCTTATACACACTGTTCTTATATTC [CACACA_site288]”, the “gcPBM binding intensity (ln)” value is reported as 8.61 ± 0.42.
With TATAAATTAAAATCAGTGCATATTTTGAAAAACCTC the “gcPBM binding intensity (ln)” value was 8.64 ± 0.16.
With “TGAAATAACCCATGTGCATGCACTTCAATAACTGAA [TGCATGCA_site1041]” the “gcPBM binding intensity (ln)” value was 9.85 ± 0.27.
In the case of “TATAAATTATAAATTGCACACATATTTTTATATTTA [CACACA_site8974]”, the “gcPBM binding intensity (ln)” value is reported as 8.18 ± 0.39.
“ATATTATTATTAGTTTCACACATTTAATGAAACTAA [CACACA_site5677]” was tested, and the “gcPBM binding intensity (ln)” value was 8.51 ± 0.38.
For “TGGAGGTCAGTTCACAGTACCCAGAAACTCTACGAG [XGTACX_site2007]”, the “gcPBM binding intensity (ln)” value was 8.41 ± 0.42.
In the case of “ATTACCATATAAAACACACAAACATACATACATACA [CACACA_site3729]”, the “gcPBM binding intensity (ln)” value is reported as 9.24 ± 0.26.
“TATATATATATATATTGTACATATTAATATTAGAAA [XGTACX_site8923]” was tested, and the “gcPBM binding intensity (ln)” value was 10.1 ± 0.39.
With “AATACTCAAAAGAATCGTACAAACAACACTCCCACG [XGTACX_site7564]” the “gcPBM binding intensity (ln)” value was 8.82 ± 0.48.
“TTACATGTAAAAGGTACACACATTAGATATACAAAT [CACACA_site6651]” was tested, and the “gcPBM binding intensity (ln)” value was 8.94 ± 0.49.
With “TATCATACCTTTTAATGTACACACATTTCTTTTTTG [XGTACX_site1655]” the “gcPBM binding intensity (ln)” value was 8.9 ± 0.36.
With “TTTTGGTTAATTCCCCCCATTACATTATGTCATGTC [CACACA_negctrl_site229]” the “gcPBM binding intensity (ln)” value was 10.185 ± 0.007.
“TTTCATTTTTTTACATGTACGCAAAAGTGTGTAGTT [XGTACX_site6582]” was tested, and the “gcPBM binding intensity (ln)” value was 8.78 ± 0.31.
With “GTAAATATTCATATATGTACTTATGATATTTGCTAA [XGTACX_site6828]” the “gcPBM binding intensity (ln)” value was 8.39 ± 0.33.
For “TAATACTTATATAAAGGTACACAATTTAACCGAATG [XGTACX_site7173]”, the “gcPBM binding intensity (ln)” value was 8.72 ± 0.4.
With “CTTCCTTAGGAATGTACACACATATAAAATATGTTG [CACACA_site6355]” the “gcPBM binding intensity (ln)” value was 8.53 ± 0.26.
“AAGAAAGAGTTCTGTTGTACAAAATATTAATATGTA [XGTACX_site7213]” was tested, and the “gcPBM binding intensity (ln)” value was 8.77 ± 0.6.
In the case of “ACATATATATATATATATTGATTTATTTATTTCCCT [CACACA_negctrl_site659]”, the “gcPBM binding intensity (ln)” value is reported as 8.57 ± 0.12.
For “ATATATATATATAAATGTACAAAAATATATATGTAA [XGTACX_site4531]”, the “gcPBM binding intensity (ln)” value was 10.04 ± 0.035.
With “TAATTAACTTTATATGCATGTTAAAAATGTTATAAG [TGCATGCA_site761]” the “gcPBM binding intensity (ln)” value was 8.29 ± 0.42.
“TATAAACAAAACAAAACATGCATAATACTATAAATT [TGCATGCA_site333]” was tested, and the “gcPBM binding intensity (ln)” value was 8.96 ± 0.41.
For “CTTTATTATAAGATTACACACATGTGTTCTAATTTA [CACACA_site7479]”, the “gcPBM binding intensity (ln)” value was 8.38 ± 0.23.
With “TTTATTAAGAAACACACACACACACCCAAAATAAAA [CACACA_site242]” the “gcPBM binding intensity (ln)” value was 8.91 ± 0.57.
“AACAAAATAAAAAGTAATCTTATTTATTAAAATTTT [CACACA_negctrl_site419]” was tested, and the “gcPBM binding intensity (ln)” value was 8 ± 0.32.
For “TTTTTGTCTGCATACGCACACACGTGGACCATCTTA [CACACA_site8303]”, the “gcPBM binding intensity (ln)” value was 9.09 ± 0.48.
For “AAAGAAAGAAAACACACACACATATATATATATCAA [CACACA_site3743]”, the “gcPBM binding intensity (ln)” value was 8.84 ± 0.35.
For “TATATATATATATGTACACACACACCGATAAATAAA [CACACA_site8041]”, the “gcPBM binding intensity (ln)” value was 10.21 ± 0.085.
With “CTATTTAAAATATGAACACACATTATTTGTTTTAGA [CACACA_site2713]” the “gcPBM binding intensity (ln)” value was 8.21 ± 0.42.
In the case of “AAAAAAAAAAATACTAGTACGTAAAATTATATAAAT [XGTACX_site3019]”, the “gcPBM binding intensity (ln)” value is reported as 8.8 ± 0.41.
In the case of “AATATAGGAATATGCACACATATATACCTACATACA [CACACA_site4939]”, the “gcPBM binding intensity (ln)” value is reported as 8.38 ± 0.23.
In the case of “ATATCATTATATAGTTGTACATATTTATTTATTTAT [XGTACX_site8995]”, the “gcPBM binding intensity (ln)” value is reported as 8.67 ± 0.4.
With “GATATGTGTATAATATGTACATATATATATATATAT [XGTACX_site6531]” the “gcPBM binding intensity (ln)” value was 10.2 ± 0.5.
“ATTTCCCATACACGTTGTACAATGTAGAGAAAGTAT [XGTACX_site4586]” was tested, and the “gcPBM binding intensity (ln)” value was 8.69 ± 0.4.
For “TACGTATCATAATTTTATTTTATATATATTCACAAA [XGTACX_negctrl_site144]”, the “gcPBM binding intensity (ln)” value was 8.51 ± 0.56.
“ATATATATATGGAAGTGTACTTATATAGCATACTAG [XGTACX_site5130]” was tested, and the “gcPBM binding intensity (ln)” value was 9.54 ± 0.15.
In the case of “AGCGTATAACATATGACACACACACCGACATACACA [CACACA_site8532]”, the “gcPBM binding intensity (ln)” value is reported as 8.7 ± 0.57.
